Measurements: paper PMC4336329 (PLoS ONE, 2015)
About 2,200 (0.71%) of roughly 310,000 compounds showed an effect of 50% or more. Effects have a minus sign here. This is one part of the list.

Molecular target: human ether-à-go-go-related gene (hERG) potassium channel (human, UniProt Q12809)
Assay: primary screen, population patch clamp on CHO cells stably expressing hERG

Sequence of human ether-à-go-go-related gene (hERG) potassium channel (Q12809 whole entry, looked up): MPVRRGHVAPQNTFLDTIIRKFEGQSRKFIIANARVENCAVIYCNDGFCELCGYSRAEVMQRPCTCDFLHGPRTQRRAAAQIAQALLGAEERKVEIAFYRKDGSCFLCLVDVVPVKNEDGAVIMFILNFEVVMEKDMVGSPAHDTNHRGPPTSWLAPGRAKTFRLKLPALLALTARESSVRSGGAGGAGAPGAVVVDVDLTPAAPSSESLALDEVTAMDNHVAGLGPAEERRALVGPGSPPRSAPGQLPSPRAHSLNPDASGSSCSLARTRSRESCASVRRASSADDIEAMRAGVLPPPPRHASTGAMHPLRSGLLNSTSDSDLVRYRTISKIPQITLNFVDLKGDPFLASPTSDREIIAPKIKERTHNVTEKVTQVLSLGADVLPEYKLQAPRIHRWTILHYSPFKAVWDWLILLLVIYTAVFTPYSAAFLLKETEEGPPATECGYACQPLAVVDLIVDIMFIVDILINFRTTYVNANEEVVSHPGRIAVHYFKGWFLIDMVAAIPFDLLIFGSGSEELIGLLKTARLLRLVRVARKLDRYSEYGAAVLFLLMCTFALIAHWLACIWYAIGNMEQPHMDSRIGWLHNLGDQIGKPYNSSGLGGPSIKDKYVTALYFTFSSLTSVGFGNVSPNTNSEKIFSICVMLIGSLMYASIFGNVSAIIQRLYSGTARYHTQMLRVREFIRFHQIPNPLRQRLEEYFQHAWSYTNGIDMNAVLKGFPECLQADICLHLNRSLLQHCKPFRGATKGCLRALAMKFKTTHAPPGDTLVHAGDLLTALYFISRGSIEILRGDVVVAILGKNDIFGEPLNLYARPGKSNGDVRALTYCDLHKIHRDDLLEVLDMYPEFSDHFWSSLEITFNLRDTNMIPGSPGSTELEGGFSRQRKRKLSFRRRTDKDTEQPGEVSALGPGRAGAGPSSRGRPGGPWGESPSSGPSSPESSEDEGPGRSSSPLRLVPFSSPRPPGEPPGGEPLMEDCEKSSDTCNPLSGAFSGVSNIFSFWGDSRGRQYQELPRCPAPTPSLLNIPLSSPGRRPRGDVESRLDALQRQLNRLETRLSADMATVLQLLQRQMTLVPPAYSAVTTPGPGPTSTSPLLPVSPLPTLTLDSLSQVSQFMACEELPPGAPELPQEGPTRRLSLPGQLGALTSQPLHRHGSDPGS

Compound | hERG current change (%, negative = inhibition) at 1uM [%]
COc1ccc(NS(=O)(=O)c2ccc(N3CC(O)=C(c4ccccc4)C3=N)cc2)cc1 | 11.3
CC1=C(C(=O)Nc2ccc(Cl)cc2)C(c2ccncc2)C(C#N)=C(SCC(N)=O)N1 (centres unmarked) | 13.2
COc1cccc(-c2cn(-c3cccc(C(F)(F)F)c3)c(=S)[nH]2)c1 | 10.7
O=C(CNC(=O)c1ccccc1F)OCC(=O)N1CCCCC1 | 5.56
O=C(CCc1nnc(C2(c3ccc(Cl)cc3)CCC2)o1)NCCCn1cccn1 | 6.6
CCc1ccccc1NC(=O)C1CCN(c2cnccn2)CC1 | -1.11
COc1ccccc1Nc1nc(C)cc(C)n1 | 15.3
Nc1nc(SCc2c(Cl)cccc2Cl)n[nH]1 | 13.6
CC(C)CC(=O)N1CCN(S(=O)(=O)c2ccc(F)cc2)CC1 | 14.6
Cc1cccc(NS(=O)(=O)c2cc(C(=O)N3CCCC3)ccc2Cl)c1 | 8.12
O=C(CCS(=O)(=O)c1ccccc1)N1CCN(c2cccc(C(F)(F)F)c2)CC1 | -6.12
CCCc1cc(=O)[nH]c(SCC(=O)Nc2ccc([N+](=O)[O-])cc2C#N)n1 | 7.16
O=C(COc1ccc(Br)cc1)N(Cc1ccco1)C1CCS(=O)(=O)C1 (centres unmarked) | -0.659
O=S(=O)(NC(=S)c1ccccc1)c1ccc(F)cc1 | 12.6
CCn1c2ccccc2c2cc(NC(=O)c3cc(OC)cc(OC)c3)ccc21 | 7.01
O=C(NC1CCCCC1)c1cc(-c2ccc(O)cc2)on1 | 5.61
Cc1ccnc(NC(=O)c2ccc(Cl)s2)c1 | 14
Cc1cc(C)n2nc(SCC(=O)N3CCc4ccccc43)nc2n1 | 2.57
COc1ccc(-n2c(=O)[nH]cc(C(=O)Nc3ccc4c(c3)OCCO4)c2=O)cc1 | 6.69
Cc1cc(N2CCOCC2)n2nc(C)c(-c3ccccc3)c2n1 | 13.2
COC/C=C/C1=CC2=CC(=O)C(C)(OC(=O)c3cccs3)C(=O)C2=CO1 (centres unmarked) | 19.7
c1ccc(-c2nc(CSc3n[nH]c(-c4cccs4)n3)cs2)cc1 | 6.69
COc1cccc2c(=O)cc(C)n(CC(=O)Nc3ccc(Br)cc3)c12 | 11.7

Compound | hERG current change (%, negative = inhibition) at 1uM [%]
C1CCC2CCCCC2C1 (centres unmarked) | 15.3
COc1ccc(C2C(C(=O)NCC3CCCO3)c3cc(OC)c(OC)cc3C(=O)N2C)cc1OC (centres unmarked) | 11.1
C=C(Cl)CSC(=S)N(CC)CC | 7.94
CC(C)c1ccc(C2CC(=O)c3cnc(NC(=O)c4ccco4)nc3C2)cc1 (centres unmarked) | 9.95
N#CCCN(C(=O)COC(=O)CNS(=O)(=O)c1ccc2ccccc2c1)c1ccccc1 | 6.62
O=C(Nc1ccc(Cl)cc1F)c1ccc(-n2cncn2)cc1 | 5.38
CC1C/C(=N/NC(=O)c2cccc(F)c2)c2ccc(O)cc2C1 (centres unmarked) | 2.74
C/C(=N/NC(=O)CNC(=O)C1COc2ccccc2O1)c1ccc([N+](=O)[O-])cc1 (centres unmarked) | -42.3
CC(NC(=O)c1cccs1)c1ccc(Br)cc1 (centres unmarked) | 14.3
O=C(Oc1ccc(/C=N/NC(=O)c2ccccc2F)cc1)c1ccccc1 | 9.04
COc1cc(C(=S)N2CCCC2)cc(Cl)c1O | 8.87
O=C(CN1C(=O)NC2(CCCc3ccccc32)C1=O)NC1CCCCC1 (centres unmarked) | 1.03
CC1CCCN(CCCNC(=O)c2ccc3c(c2)N(Cc2ccc(F)cc2)C(=O)c2ccccc2S3=O)C1 (centres unmarked) | -1.27
CCCCN(C(=O)NC(=O)Nc1nc2ccc(OC)cc2s1)S(C)(=O)=O | 15.2
CN(c1ccccc1)S(=O)(=O)c1cccc(NC(=O)c2cc(=O)c3ccccc3o2)c1 | 14.8
CCOc1ccc(Cl)cc1S(=O)(=O)N1CCC(C(=O)NCc2ccccn2)CC1 | -4.95
N#Cc1nc(-c2ccccc2)oc1NCCCn1ccnc1 | 6.33
Cc1ccc2nc(-c3ccc(Br)o3)oc(=O)c2c1 | -7.37
Cc1ccc(-c2csc3nc(C)n(N)c(=O)c23)cc1 | 2.29
Cc1cc(C)n(C(=O)c2cc3c(s2)CCCC3)n1 | 12
Nc1nnc(SCC(=O)Nc2cc(S(=O)(=O)N3CCOCC3)ccc2N2CCCC2)s1 | 0.703
COc1ccc(S(=O)(=O)N2CCC(C)CC2)cc1OC | 10.9
COc1ccc(C2=NN(C3=NN=C(N)Cc4ncnn43)C(O)(C(F)(F)F)C2)cc1 (centres unmarked) | 11.1

Compound | hERG current change (%, negative = inhibition) at 1uM [%]
COc1cc(OC)cc(C(=O)NNC(=S)NCc2ccco2)c1 | 1.72
CC1(c2nnc(Cc3ccccc3)o2)CC(c2ccncc2)=NO1 (centres unmarked) | 7.52
Cc1ccc(Cl)cc1N1CCN(C(=O)c2ccc(NC3=NC4CS(=O)(=O)CC4S3)cc2)CC1 (centres unmarked) | 16.5
O=C(c1ccc2c(c1)OCO2)N1CCC(Cc2ccccc2)CC1 | 8.92
CC12CN3CC(C)(CN(C1)C3c1ccc(Cl)cc1Cl)C2O (centres unmarked) | 0.586
OC(c1ccc(Cl)cc1)C(O)c1nc2ccccc2[nH]1 (centres unmarked) | 1.71
O=C(COC(=O)c1ccccc1O)NCCCc1ccccc1 | 14.3
Cc1cc(C)cc(N=c2c([N+](=O)[O-])nn(-c3cccc(Cl)c3)n2O)c1 | 4.71
Cc1ccc(N2C(=O)[C@@H]3C(C(=O)CCN4C(=O)c5ccccc5C4=O)=NN[C@@H]3C2=O)cc1 | 10.5
CCOc1ccc(N(CC)S(=O)(=O)c2c(C)[nH]c(=O)[nH]c2=O)cc1 | 14.9
CCn1nc(C)c(CNC(=O)CCc2nnc(Cc3c[nH]c4ccccc34)o2)c1C | 10.6
COc1ccccc1-n1c(C)nnc1SCC(=O)Nc1cc(C)cc(C)c1 | 7.49
COc1cc(C(=O)N/N=C/c2cn(Cc3ccccc3)c3ccccc23)ccc1O | -3.34
O=C(Nc1ccccc1C(F)(F)F)NC1CCCCC1 | 7.26
Cn1c(=O)c2ccccc2n(Cc2ccccc2F)c1=O | 9.49
COc1ccc(S(=O)(=O)Nc2cc(C(C)C)c(O)cc2C)cc1 | 8.9
CC1CCCCN1C(=O)CN1C(=O)NC2(CCCCC2C)C1=O (centres unmarked) | 5.35
CC(=O)NC(=C(Cl)Cl)S(=O)(=O)c1ccccc1 | 18.9
CCNc1nc(NC(C)C)nc(N(C#N)C(C)C(=O)N(C)C)n1 (centres unmarked) | 0.935
O=C(CSc1nnc(CNC(=O)c2ccccc2F)o1)NCc1ccco1 | 17.8
CNC(=O)c1ccc(NC(=O)/C=C/c2cccc(F)c2)cc1 | -0.619
CNC(=O)c1c(NC(=O)C2=COCCO2)sc2c1CCN(C(=O)OC)C2 | 7.39
O=C(NN1C(=O)C2C3CCC(O3)C2C1=O)c1ccc(Br)o1 (centres unmarked) | 7.31

Compound | hERG current change (%, negative = inhibition) at 1uM [%]
COc1ccc(NC(=O)CSc2nc3c(c(=O)n2-c2ccccc2OC)SCC3)cc1 | 6.89
O=C(CSc1nnc(-c2ccc(O)cc2)n1Cc1ccco1)c1cccs1 | -6.28
CN(C)CCCN(C(=O)c1ccc(Br)s1)c1nc2cc3c(cc2s1)OCCO3.Cl | 4.13
COC(=O)[C@H](CCSC)NC(=O)N1CCN(c2cccc(C(F)(F)F)c2)CC1 | 6.2
O=C(/C=C/c1ccc(Cl)cc1)NC(=S)Nc1ccc(CN2CCOCC2)cc1 | 11.6
CCCCN(S(=O)(=O)c1ccccc1)S(=O)(=O)c1ccccc1 | 13.9
Cc1cc(C)n(CC(=O)NNC(=O)c2cccc(C(F)(F)F)c2)n1 | 5.29
CC(=O)N(C)c1ccc(N=C2C(=O)Nc3ccccc32)cc1 | 9.53
COc1ccc(CC(=O)NCC2CCCN(Cc3cccc(C(F)(F)F)c3)C2)cc1 (centres unmarked) | 5.75
CC(C)(C)c1nnc(N/N=C/c2cc(Br)ccc2O)n(N)c1=O | 5.69
Cc1ccc(S(=O)(=O)N(CC(O)CN2CCCCC2)c2cccc([N+](=O)[O-])c2)cc1 (centres unmarked) | -73.1
O=C(N/N=C/c1ccc([N+](=O)[O-])s1)c1ccncc1 | 8.25
Cc1cccc(NC(=O)/C(=C\c2ccco2)NC(=O)c2cccs2)c1 | 7.02
CC12CCC(C(=O)NNC(=O)c3ccc(F)cc3)(OC1=O)C2(C)C (centres unmarked) | 14
CN(CC(=O)Nc1ccc(F)c(F)c1F)C(=O)Cn1cnc2c1c(=O)n(C)c(=O)n2C | 6.32
CCOC(=O)c1sc(NC(=O)CSc2nnnn2-c2ccccc2)c(C(=O)OCC)c1C | 11.4
CCOC(=O)c1[nH]c(C(=O)O)c(OC(=O)CC)c1C | 14.5
CN1CCN(c2ccc(C(=O)c3ccc(F)cc3)cc2)CC1 | -5.8
Cc1ccc(NS(=O)(=O)c2ccc3oc(=O)ccc3c2)cc1Cl | 13.8
Nc1cc(Cl)nc(N/N=C/c2c(O)ccc3ccccc23)n1 | 13.8
